From ChEMBL document CHEMBL4888484, “Replenishing the malaria drug discovery pipeline: Screening and hit evaluation of the MMV Hit Generation Library 1 (HGL1) against asexual blood stage Plasmodium falciparum ,using a nano luciferase reporter read-out” (2022)
In all, about 150,000 compounds went through this assay and about 540 (0.36%) showed an effect of 50% or more. Some of the results follow.

The compounds below were run on Plasmodium falciparum (assay: Primary screen in NF54 nanoGlo assay, in single point, at 2uM, 72h; a lower Z score goes with more inhibition). Settings: timepoint 72 hour.
Type: functional, Erythrocyte
With `O=C(Nc1ccccc1-n1ccnc1)c1[nH]nc(C2CC2)c1Cl` the “% Inhibition” value was -11% and the Z score was 1.26.
`CN(CCc1ccccc1C(=O)N1CC(C)(O)C1)C(=O)OC(C)(C)C` was tested, and the “% Inhibition” value was -10% and the Z score was 1.36.
In the case of `O=S(=O)(c1ccccc1OC(F)(F)F)N1CCC(c2nc3ccccc3s2)CC1`, the “% Inhibition” value was 1% and the Z score was -0.06.
`N#Cc1c(N)nc2c(c1N)C[C@H](CO)O2` was tested, and the “% Inhibition” value was -6% and the Z score was 0.69.
With `Cc1ccc(C(=O)NCc2cccc(Cl)c2)cc1-n1nnc2cccnc21` the “% Inhibition” value was -4% and the Z score was 0.75.
For `Cc1nccc(NC(=O)c2ccncc2Cl)c1Cl`, the “% Inhibition” value was -3% and the Z score was 0.28.
For `CCOC1CC(NC(=O)CCc2cnccn2)C12CCOCC2` (stereo not given), the “% Inhibition” value was -9% and the Z score was 1.36.
In the case of `O=c1cc2c(nn1CN1CCc3ccccc3C1)CCC2`, the “% Inhibition” value was -14% and the Z score was 1.78.
In the case of `Cc1c(-c2ccccc2F)[nH]c2ccc(CNC(=O)C3CCOCC3)cc12`, the “% Inhibition” value was 6% and the Z score was -0.88.
`Cc1ccccc1Nc1nnc(-c2ccccc2)c(-c2ccccc2)n1` was tested, and the “% Inhibition” value was 34% and the Z score was -0.47.
For `CCn1cc(NC(=O)c2cc(-c3cccc(OC)c3)nc3c2c(C)nn3C)cn1`, the “% Inhibition” value was 24% and the Z score was -2.73.
For `Cc1ccc2c(c1C)-n1cccc1C1(CCN(C(=O)COc3ccc(Cl)cc3)CC1)N2`, the “% Inhibition” value was -7% and the Z score was 0.96.
For `Cc1nccc(C(=O)N2CCO[C@H](c3ccccc3)CC2)n1`, the “% Inhibition” value was -10% and the Z score was 1.87.
With `Cc1csc([C@@H](C)CNC(=O)c2ccc[nH]2)n1` the “% Inhibition” value was -11% and the Z score was 1.19.
With `CCS(=O)(=O)N1CCC(C(=O)N2CCN(c3cccc(Cl)c3)CC2)CC1` the “% Inhibition” value was -9% and the Z score was 1.36.
For `Cc1nn(C)c(C)c1C(C)c1nc(C2CN3CCCCC3CO2)no1` (stereo not given), the “% Inhibition” value was 4% and the Z score was -0.76.
`Cc1cccc(N2CCN(C(=O)c3cc4c(=O)n(C)ccc4n3C)CC2)c1C` was tested, and the “% Inhibition” value was -11% and the Z score was 1.09.
For `CC(C)c1ccc(-n2cc(-c3ccccc3)nc2NC(=O)CN(CCN2CCOCC2)C(=O)c2cccs2)cc1`, the “% Inhibition” value was 15% and the Z score was -2.18.
For `c1cn(-c2ccc(N3CCC(N[C@@H]4COC5(CCCCC5)C4)CC3)cc2)cn1`, the “% Inhibition” value was 8% and the Z score was -1.06.
`Cc1nsc(NC(=O)c2cccnc2)n1` was tested, and the “% Inhibition” value was 31% and the Z score was -3.54.
For `CC(C)CCNC(=O)[C@@H]1CC2(CN(Cc3ccccc3)C2)CN1C`, the “% Inhibition” value was -1% and the Z score was 0.24.
In the case of `CCc1ccc(N2C[C@@H](c3ncon3)CC2=O)cc1`, the “% Inhibition” value was -11% and the Z score was 1.04.
`Cc1nn(C)c(C)c1-c1ccnc(NC[C@H]2CCCO2)n1` was tested, and the “% Inhibition” value was -18% and the Z score was 1.73.
`CC(NC(=O)NC(C)(C)C)C1CCCN(C(=O)c2cnns2)C1` (stereo not given) was tested, and the “% Inhibition” value was -9% and the Z score was 1.77.
For `CN(C)c1ncccc1CNc1cc(C#N)ccn1`, the “% Inhibition” value was 6% and the Z score was -0.7.
For `Cc1cccc(-c2nc(Cn3nnc(C(=O)NCc4ccc(Cl)cc4)c3N)c(C)o2)c1`, the “% Inhibition” value was -11% and the Z score was 1.55.
For `COc1ccc(C(=O)N(Cc2cc(NS(=O)(=O)c3ccc(OC)cc3)ccc2N(C)C)C2CC2)cc1`, the “% Inhibition” value was 6% and the Z score was -1.06.
In the case of `Cc1nc2c(C(=O)N(C)Cc3ccncc3C)cccc2[nH]1`, the “% Inhibition” value was -8% and the Z score was 1.38.
In the case of `CCCNC(=O)CN(CCC)c1ncc(F)cn1`, the “% Inhibition” value was -10% and the Z score was 0.98.
With `CN(C(=O)CCc1cnn(C)c1)c1cc(Cl)cc(Cl)c1` the “% Inhibition” value was -16% and the Z score was 2.51.
In the case of `CC(C)C(=O)NCCNC(=O)c1cnccn1`, the “% Inhibition” value was 4% and the Z score was -0.67.
`CCS(=O)(=O)Oc1ccccc1CN(C(=O)NC(C)C)C(C)C` was tested, and the “% Inhibition” value was 0% and the Z score was 0.05.
With `O=C(c1cnccn1)N1CCC2(CC1)NC(c1ccccc1)=NO2` the “% Inhibition” value was -18% and the Z score was 1.65.
`COC(=O)CCN(C)Cc1cc(C)on1` was tested, and the “% Inhibition” value was -6% and the Z score was 0.63.
In the case of `O=C(CNC(=O)c1ccc2c(c1)CCCC2)NC1CC1`, the “% Inhibition” value was -3% and the Z score was 0.32.
For `O=C(CC1CCN(C(=O)c2ccc3nc(-c4ccccc4)oc3c2)CC1)NCc1ccc2c(c1)OCO2`, the “% Inhibition” value was -7% and the Z score was 0.97.
For `COc1ccc(CN2C[C@H]3CC[C@@H](C2)[C@H]3O)c(OC)c1OC`, the “% Inhibition” value was -25% and the Z score was 3.62.
For `Cc1ccc(-c2c3c(=O)n(C)c(=O)n(C)c3c3n2-c2ccccc2N[C@@H]3c2cccc(F)c2F)cc1`, the “% Inhibition” value was 3% and the Z score was -0.51.
With `Cc1ccc2ncc(CN(C)Cc3cccn3C)n2c1` the “% Inhibition” value was 6% and the Z score was -0.83.
For `COC1CC(CCNC(=O)c2cnn(C(C)C)c2Cl)C1` (stereo not given), the “% Inhibition” value was -9% and the Z score was 1.46.
In the case of `O=C(c1cc2ccccc2[nH]1)N1CC[C@H](Cc2nncn2CC2CC2)C1`, the “% Inhibition” value was -11% and the Z score was 1.93.
`O=C(c1ccc(F)cc1)N1CCN(Cc2csc(C3CCCCC3)n2)CC1` was tested, and the “% Inhibition” value was -5% and the Z score was 0.59.
`CCOC(C)(C)CNc1ncnc(N)c1Cl` was tested, and the “% Inhibition” value was -6% and the Z score was 1.15.
For `O=C(O)[C@@H]1CCCCN1C(=O)C1CCC=CCC1`, the “% Inhibition” value was -6% and the Z score was 1.09.
`CC(C)[C@H](NC(=O)c1ccc(=O)n(C)c1)C1(CO)CCCC1` was tested, and the “% Inhibition” value was -5% and the Z score was 0.56.
`CC[C@H]1CN(C(=O)NC(C2CC2)C2CC2)CCO1` was tested, and the “% Inhibition” value was 3% and the Z score was -0.34.
`c1ccc(CCCN2CCCC[C@H]2c2ncc[nH]2)cc1` was tested, and the “% Inhibition” value was -6% and the Z score was 1.1.
With `Cc1ccc(C)c(C(=O)N2CCC3(CCC(=O)N(Cc4ccncc4)C3)CC2)c1` the “% Inhibition” value was -9% and the Z score was 0.91.
In the case of `COc1ccccc1[C@H]1CC(=O)Nc2c1c(=O)[nH]n2C1CCCCCCC1`, the “% Inhibition” value was 28% and the Z score was -3.11.
With `Cn1cc(C2CCN(Cc3nnc(-c4ccccc4)o3)CC2)cn1` the “% Inhibition” value was 1% and the Z score was -0.14.
With `Cc1cc(CNC(C)C2CCCO2)no1` (stereo not given) the “% Inhibition” value was 6% and the Z score was -1.12.
With `CN(C(=O)c1nn2c(C(F)(F)F)c3c(nc2c1Cl)-c1ccccc1CC3)c1ccc(OC(F)(F)F)cc1` the “% Inhibition” value was 25% and the Z score was -3.28.
In the case of `CN(C)[C@@H](CNS(C)(=O)=O)c1cccs1`, the “% Inhibition” value was 17% and the Z score was -1.97.
`COC(=O)Cn1ccc(NS(=O)(=O)N2CC3CCC2C3)n1` (stereo not given) was tested, and the “% Inhibition” value was -6% and the Z score was 0.53.
For `COc1ccc(CNC(=O)Cn2c(=O)n(Cc3cccc(Cl)c3)c(=O)c3ccccc32)cc1`, the “% Inhibition” value was -7% and the Z score was 1.
With `Cc1ccsc1-c1nnc(CC(=O)NCc2cccc(Cl)c2)o1` the “% Inhibition” value was -6% and the Z score was 0.95.
In the case of `CN(c1ccccc1NC(=O)NCc1nccn1C)C1CCCC1`, the “% Inhibition” value was 32% and the Z score was -3.63.
In the case of `CCN1CCN(CC(=O)N2CC[C@@]3(CCCN(CCC4CCCCC4)C3)C2)CC1`, the “% Inhibition” value was -8% and the Z score was 1.12.
In the case of `C[C@H]1CN(C(=O)c2cccn3nccc23)C[C@@H]1CS(N)(=O)=O`, the “% Inhibition” value was -3% and the Z score was 0.45.
`CN1CC2(CCN(c3ncnc4[nH]cnc34)CC2)C[C@@H](c2ccccc2)C1=O` was tested, and the “% Inhibition” value was -5% and the Z score was 0.92.
`c1ccc(-c2cnn3c(-c4ccsc4)ccnc23)cc1` was tested, and the “% Inhibition” value was -1% and the Z score was 0.1.
In the case of `C[C@@H](CCc1ccccc1)NC(=O)c1n[nH]c2ccccc12`, the “% Inhibition” value was -9% and the Z score was 1.17.
In the case of `CN1CCn2ccnc2C12CCN(C(=O)Nc1ccccc1F)CC2`, the “% Inhibition” value was -7% and the Z score was 0.97.
In the case of `CCc1nc(C)c(CNC(=O)Cc2cnc[nH]c2=O)s1`, the “% Inhibition” value was -3% and the Z score was 0.55.
In the case of `COc1ccc(CC(=O)N2CCCN(c3cc(-c4ccc(Cl)cc4)n[nH]3)CC2)cc1`, the “% Inhibition” value was -13% and the Z score was 1.36.
In the case of `C[C@H]1CCOCCN1C(=O)NCc1ccccc1OC(C)(C)C`, the “% Inhibition” value was 8% and the Z score was -1.13.
With `CCN(Cc1c(C(=O)N2CCCCCCC2)nc2ccc(Cl)cn12)C1CC1` the “% Inhibition” value was -11% and the Z score was 1.66.
`O[C@H]1[C@H](Nc2ncnc3c2ncn3C2CC2)CCCC1(F)F` was tested, and the “% Inhibition” value was -7% and the Z score was 1.07.
`OC1Cc2ccccc2C1NC1C[C@@H]2COC[C@H]12` (stereo not given in full) was tested, and the “% Inhibition” value was 16% and the Z score was -2.09.
`CN1C(=O)c2cccc(NC(=O)c3ccc(Cl)s3)c2C1=O` was tested, and the “% Inhibition” value was -10% and the Z score was 1.76.
In the case of `O=C(NCCCn1ccccc1=O)c1cc(=O)c2ccccc2[nH]1`, the “% Inhibition” value was 0% and the Z score was -0.07.
`Cc1ccc(C(=O)N2[C@H](C(=O)NCc3cccnc3)COC23CCN(C(=O)c2ccc(F)cc2)CC3)cc1` was tested, and the “% Inhibition” value was 2% and the Z score was -0.3.
`O=C(NCc1cc(C2CC2)on1)[C@H]1CCC[C@H](O)C1` was tested, and the “% Inhibition” value was -3% and the Z score was 0.37.
In the case of `Cc1nc(N2CCCC2C(=O)N(C)CC2COCCO2)nc2cc(S(C)(=O)=O)ccc12` (stereo not given), the “% Inhibition” value was -5% and the Z score was 0.59.
For `O=C1C[C@H](c2ccccc2Br)c2ncn(-c3cccnc3)c2N1`, the “% Inhibition” value was 25% and the Z score was -3.19.
In the case of `c1cncc(-c2c[nH]c([C@@H]3COCCN3C3CCOCC3)n2)c1`, the “% Inhibition” value was -8% and the Z score was 1.26.
For `CC(C)N1CC[C@H](c2nc3ncccc3[nH]2)C1`, the “% Inhibition” value was 30% and the Z score was -3.41.
With `O=C(NCCO)c1nc2ccc(Cl)cn2c1Br` the “% Inhibition” value was -2% and the Z score was 0.37.
In the case of `O=C(c1ccc(C(F)(F)F)cc1)[C@H]1CCCN(Cc2nc3ccccc3[nH]2)C1`, the “% Inhibition” value was -3% and the Z score was 0.32.
`NC(=O)c1c(NC(=O)c2cc(S(=O)(=O)N3CCCCC3)ccc2Cl)sc2c1CCCC2` was tested, and the “% Inhibition” value was -15% and the Z score was 2.06.
For `Cc1c(NC(=O)[C@H](C)c2ccc3c(c2)OCO3)noc1C(C)(C)C`, the “% Inhibition” value was 6% and the Z score was -1.27.
For `CCCNc1ncc(CN(C)Cc2cnn(C)c2)cn1`, the “% Inhibition” value was 1% and the Z score was -0.25.
`Cc1nn(C)c(C)c1CC(=O)N(c1cccc(F)c1)C1CCOCC1` was tested, and the “% Inhibition” value was -10% and the Z score was 1.22.
With `NC1=NC2(CCN(c3ncnc4[nH]ccc34)CC2)C(=O)N1` the “% Inhibition” value was 1% and the Z score was -0.11.
In the case of `CC1CCN(C(=O)c2ccc3ncsc3c2)CC1`, the “% Inhibition” value was -7% and the Z score was 0.96.
